B1: MB 64 (other)
chain 1: DIQMTQSPSSLSASVGDRVTITCRASQGISSHLAWYQQKPGKAPKLLIYDASNLETGVPSRFSGSGSGTDFTLTISSLQPEDFATYYCQQTYSTPWTFGQGTKVEIKRTVAAPSVFIFPPSDEQLKSGTASVVCLLNNFYPREAKVQWKVDNALQSGNSQESVTEQDSKDSTYSLSSTLTLSKADYEKHKVYACEVTHQGLSSPVTKSFNRGECGGGGSGGGGSGGGGSGGGGSGGGGSGGGGSGGGGSGGGGSGGGGSGGGGSGGGGSGGGGSGGGGSGGGGSEVQLLESGGGLVQPGGSLRLSCAASGFPFSQHGMHWVRQAPGKGLEWVSAIDRSGSYIYYADSVKGRFTISRDNSKNTLYLQMNSLRAEDTAVYYCARDTYGGKVTYFDYWGQGTLVTVSSASTKGPSVFPLAPSSKSTSGGTAALGCLVKDYFPEPVTVSWNSGALTSGVHTFPAVLQSSGLYSLSSVVTVPSSSLGTQTYICNVNHKPSNTKVDKKVEPKSCGGGGSGGGGSGGGGSGGGGSGGGG[not shown - about 200 residues]
chain 2: [not shown - human IgG1 Fc]GGGGSGGGGSGGGGSGGGGSGGGGSGGGGSGGGGSGGGGSGGGGSGGGGSGGGGSGGGGSGGGGSGGGGS[not shown - human IgG1 Fc]GGGGSGGGGSGGGGSGGGGSGGGGSGGSSQIRQNYSTDVEAAVNSLVNLYLQASYTYLSLGFYFDRDDVALEGVSHFFRELAEEKREGYERLLKMQNQRGGRALFQDIKKPAEDEW
chain 3: DIQMTQSPSSLSASVGDRVTITCRASQGISSHLAWYQQKPGKAPKLLIYDASNLETGVPSRFSGSGSGTDFTLTISSLQPEDFATYYCQQTYSTPWTFGQGTKVEIKRTVAAPSVFIFPPSDEQLKSGTASVVCLLNNFYPREAKVQWKVDNALQSGNSQESVTEQDSKDSTYSLSSTLTLSKADYEKHKVYACEVTHQGLSSPVTKSFNRGECGGGGSGGGGSGGGGSGGGGSGGGGSGGGGSGGGGSGGGGSGGGGSGGGGSGGGGSGGGGSGGGGSGGGGSEVQLLESGGGLVQPGGSLRLSCAASGFPFSQHGMHWVRQAPGKGLEWVSAIDRSGSYIYYADSVKGRFTISRDNSKNTLYLQMNSLRAEDTAVYYCARDTYGGKVTYFDYWGQGTLVTVSSASTKGPSVFPLAPSSKSTSGGTAALGCLVKDYFPEPVTVSWNSGALTSGVHTFPAVLQSSGLYSLSSVVTVPSSSLGTQTYICNVNHKPSNTKVDKKVEPKSCGGGGSGGGGSGGGGSGGGGSGGGGSGKTPDAMKAAMALEKKLNQALLDLHALGSARTDPHLCDFLETHFLDEEVKLIKKMGDHLTNLHRLGGPEAGLGEYLFERLTLRHD
B2: MB 56 (other)
chain 1: DIQMTQSPSSLSASVGDRVTITCRASQGISSYLAWYQQKPGKAPKLLIYDASNLQSGVPSRFSGSGSGTDFTLTISSLQPEDFATYYCQQANSFPSTFGQGTKVEIKRTVAAPSVFIFPPSDEQLKSGTASVVCLLNNFYPREAKVQWKVDNALQSGNSQESVTEQDSKDSTYSLSSTLTLSKADYEKHKVYACEVTHQGLSSPVTKSFNRGECGGGGSGGGGSGGGGSGGGGSGGGGSGGGGSGGGGSGGGGSGGGGSGGGGSGGGGSGGGGSGGGGSGGGGSQVQLVQSGAEVKKPGASVKVSCKASGYTFTSYGISWVRQAPGQGLEWMGWISAYNGNTNYAQKLQGRVTMTRDTSTSTVYMELSSLRSEDTAVYYCARDIGPIDYWGQGTLVTVSSASTKGPSVFPLAPSSKSTSGGTAALGCLVKDYFPEPVTVSWNSGALTSGVHTFPAVLQSSGLYSLSSVVTVPSSSLGTQTYICNVNHKPSNTKVDKKVEPKSCGGGGSGGGGSGGGGSGGGGSGGGG[not shown - about 200 residues]
chain 2: B1 chain 2
chain 3: DIQMTQSPSSLSASVGDRVTITCRASQGISSYLAWYQQKPGKAPKLLIYDASNLQSGVPSRFSGSGSGTDFTLTISSLQPEDFATYYCQQANSFPSTFGQGTKVEIKRTVAAPSVFIFPPSDEQLKSGTASVVCLLNNFYPREAKVQWKVDNALQSGNSQESVTEQDSKDSTYSLSSTLTLSKADYEKHKVYACEVTHQGLSSPVTKSFNRGECGGGGSGGGGSGGGGSGGGGSGGGGSGGGGSGGGGSGGGGSGGGGSGGGGSGGGGSGGGGSGGGGSGGGGSQVQLVQSGAEVKKPGASVKVSCKASGYTFTSYGISWVRQAPGQGLEWMGWISAYNGNTNYAQKLQGRVTMTRDTSTSTVYMELSSLRSEDTAVYYCARDIGPIDYWGQGTLVTVSSASTKGPSVFPLAPSSKSTSGGTAALGCLVKDYFPEPVTVSWNSGALTSGVHTFPAVLQSSGLYSLSSVVTVPSSSLGTQTYICNVNHKPSNTKVDKKVEPKSCGGGGSGGGGSGGGGSGGGGSGGGGSGKTPDAMKAAMALEKKLNQALLDLHALGSARTDPHLCDFLETHFLDEEVKLIKKMGDHLTNLHRLGGPEAGLGEYLFERLTLRHD
B3: MB 349 (other)
chain 1: DIQMTQSPSSLSASVGDRVTITCRASQSISSWLAWYQQKPGKAPKLLIYDTSNLETGVPSRFSGSGSGTDFTLTISSLQPEDFATYYCQQSYTTPWTFGQGTRLEIKRTVAAPSVFIFPPSDEQLKSGTASVVCLLNNFYPREAKVQWKVDNALQSGNSQESVTEQDSKDSTYSLSSTLTLSKADYEKHKVYACEVTHQGLSSPVTKSFNRGECGGGGSGGGGSGGGGSGGGGSGGGGSGGGGSGGGGSGGGGSGGGGSGGGGSGGGGSGGGGSGGGGSGGGGSEVQLLESGGGLVQPGGSLRLSCAASGFTFSNYGMHWVRQAPGKGLEWVSGISSAGSITNYADSVKGRFTISRDNSKNTLYLQMNSLRAEDTAVYYCAGNHAGTTVTSEYFQHWGQGTLVTVSSASTKGPSVFPLAPSSKSTSGGTAALGCLVKDYFPEPVTVSWNSGALTSGVHTFPAVLQSSGLYSLSSVVTVPSSSLGTQTYICNVNHKPSNTKVDKKVEPKSCGGGGSGGGGSGGGGSGGGGSGGGG[not shown - about 200 residues]
chain 2: B1 chain 2
chain 3: DIQMTQSPSSLSASVGDRVTITCRASQSISSWLAWYQQKPGKAPKLLIYDTSNLETGVPSRFSGSGSGTDFTLTISSLQPEDFATYYCQQSYTTPWTFGQGTRLEIKRTVAAPSVFIFPPSDEQLKSGTASVVCLLNNFYPREAKVQWKVDNALQSGNSQESVTEQDSKDSTYSLSSTLTLSKADYEKHKVYACEVTHQGLSSPVTKSFNRGECGGGGSGGGGSGGGGSGGGGSGGGGSGGGGSGGGGSGGGGSGGGGSGGGGSGGGGSGGGGSGGGGSGGGGSEVQLLESGGGLVQPGGSLRLSCAASGFTFSNYGMHWVRQAPGKGLEWVSGISSAGSITNYADSVKGRFTISRDNSKNTLYLQMNSLRAEDTAVYYCAGNHAGTTVTSEYFQHWGQGTLVTVSSASTKGPSVFPLAPSSKSTSGGTAALGCLVKDYFPEPVTVSWNSGALTSGVHTFPAVLQSSGLYSLSSVVTVPSSSLGTQTYICNVNHKPSNTKVDKKVEPKSCGGGGSGGGGSGGGGSGGGGSGGGGSGKTPDAMKAAMALEKKLNQALLDLHALGSARTDPHLCDFLETHFLDEEVKLIKKMGDHLTNLHRLGGPEAGLGEYLFERLTLRHD

The binders below were run against SARS-CoV-2 Spike on pseudotyped virus (PsV) (SARS-CoV-2) (assay: cell-based or functional assay).

Binder	IC50 SARS-CoV2 PsV, MB [µg/mL]
B1	14
B2	> 50
B3	> 50

Target: SARS-CoV-2 Spike on pseudotyped virus (PsV) (SARS-CoV-2)
Assay: cell-based or functional assay
Remark: another data set of the same source

Binder	Median IC50, SARS-CoV-2 PsV neutralization [µg/mL]
B1	14
B2	> 50
B3	> 50
